Experimental data from PubChem BioAssay AID651820 (National Center for Advancing Translational Sciences (NCATS), 2012).
Where “and” joins values, the source holds several entries; their conditions need not be identical. Identical values can stand only once. Screen size: about 340,000 compounds; about 12,000 (3.5%) were called active. This list was built around the results that the source calls inconclusive (neither active nor inactive); the mix of calls is not that of the screen. Calls come from the whole dose curve; as a rule, active = well fitted inhibition curve with a large enough effect; inconclusive = small, poorly fitted or top-dose-only effect, or another doubt; inactive = no such curve, though single readings can be large or run the other way. Potencies beside an inconclusive call are fits to weak or partial responses and may not hold up.

Assay: qHTS Assay for Inhibitors of Hepatitis C Virus (HCV)
Conditions: Huh7.5.1 HCVcc-Cre (HCVcc is cell-culture hepatitis C virus) infection, luciferase reporter, 44 h; activity change, negative = inhibition: at 41.8 µM (top of the series) unless noted
Summary of the method: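 1,000 cells/well; 4 h culture; + compound; + HCVcc-Cre (~0.5 moi); 44 h; luciferase substrate, RT 15 min; read 15 sec.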
% is set by controls: 0 for no effect and ±100 for the full control effect; potency is the fitted concentration of half-maximal effect; tags give direction and shape of the fitted curve.

| Structure (SMILES) | Potency | activity change, negative = inhibition |
| --- | --- | --- |
| CCOC(=S)SCC(=O)Nc1nc(-c2ccc(Br)cc2)cs1 | inconclusive: 31.6 µM [inhibitor, partial curve, poor fit] | – |
| Cc1cccc(C)c1NC(=O)c1cccc(COc2cc(Cl)ccc2Cl)c1 | – | inactive: 1.17% |
| CCC(COC(=O)c1cc(OC)c(OC)c(OC)c1)(c1ccccc1)N(C)C (configuration not stated) | inconclusive: 1.12 µM [inhibitor, full curve, poor fit] and inconclusive: 31.6 µM [inhibitor, single point] | – |
| Cc1cc(NC(=O)CCl)on1 | inconclusive: 31.6 µM [inhibitor, single point] | – |
| CCOC(=O)c1c(NC(C)=O)sc2c(OCC(O)CN(CC)CC)c(Br)ccc12 (configuration not stated) | active: 5.62 µM | – |
| CN(c1cccc(NC(=O)CSc2ccc(Cl)cc2)c1)S(C)(=O)=O | inconclusive: 12.6 µM [inhibitor, single point] | – |
| Cc1cc(C(=O)CSc2nnc(C3COc4ccccc4O3)n2C)c(C)n1-c1ccc(F)cc1 (configuration not stated) | inactive | – |
| COc1ccc(CC(=O)Nc2cccc(-c3ccc4nnc(C)n4n3)c2)cc1OC | inconclusive: 8.91 µM [inhibitor, partial curve] | – |
| Cc1ccc(C)c2sc(N3CCN(C(=O)c4ccc([N+](=O)[O-])o4)CC3)nc12 | inconclusive: 11.2 µM [inhibitor, partial curve] | – |
| CN1C(=O)c2ccccc2N(C)C1c1ccc2c(c1)OCO2 (configuration not stated) | – | inactive: -10.4% |
| CC(=O)c1cccc(NC(=O)CSc2nc(=O)n(Cc3ccccn3)c3c2CCC3)c1 | inconclusive: 31.6 µM [inhibitor, single point] | – |
| COc1ccc2c(c1)c(C(C)=O)c(C)n2C | inconclusive: 10 µM [inhibitor, partial curve] | – |
| O=C(NC(CC(=O)N1CCN(c2ccccc2O)CC1)c1ccccc1)c1ccccc1Cl (configuration not stated) | inconclusive: 5.01 µM [inhibitor, single point] | – |
| O=C(COC(=O)c1cc(=O)[nH]c2ccccc12)Nc1nc(-c2cccc(Br)c2)cs1 | inconclusive: 10 µM [inhibitor, partial curve] | – |
| CCCCCCNc1c([N+](=O)[O-])c(=O)sc2ccccc12 | inconclusive: 20 µM [inhibitor, single point] | – |
| O=Cc1ccc(-c2cccc(C(=O)O)c2)o1 | – | inactive: 10.2% |
| COc1ccc2[nH]cc(C(=O)CN3CCN(C4CCCCC4)CC3)c2c1 | – | inactive: -0.446% |
| COc1ccc(C2=CC(=O)C[C@H](c3ccc(OC)c(OC)c3)C2)cc1 | inconclusive: 10 µM [inhibitor, partial curve] | – |
| CCOC(=O)c1cccc(NC(=O)C2CCN(S(=O)(=O)c3cccs3)CC2)c1 | inconclusive: 11.2 µM [inhibitor, single point] | – |
| O=C(CSc1nc2cc([N+](=O)[O-])ccc2n1-c1ccccc1)NCc1ccc2c(c1)OCO2 | inconclusive: 1.78 µM [inhibitor, full curve] | – |
| COc1ccc(S(=O)(=O)Nc2cccc3c2O[C@H](CN(C)Cc2ccc(Oc4ccccc4)cc2)[C@@H](C)CN([C@H](C)CO)C3=O)cc1 | inconclusive: 0.316 µM [inhibitor, full curve] | – |
| COc1ccc(-c2csc(NC(=O)c3c(OC)cccc3OC)n2)cc1 | inconclusive: 31.6 µM [inhibitor, single point] | – |
| Cc1nn(-c2ccccc2)c(C)c1/C=N/NC(=O)c1cc(-c2ccc(Br)s2)[nH]n1 | inconclusive: 2.24 µM [inhibitor, partial curve] | – |

| Structure (SMILES) | Potency | activity change, negative = inhibition |
| --- | --- | --- |
| CCC(=O)c1ccc(N2CCN(C(=O)COc3ccc(F)cc3)CC2)c(F)c1 | inconclusive: 28.2 µM [inhibitor, single point] | – |
| COc1ccc(-c2cc3c(=O)n(CC(=O)NCc4ccc(F)cc4)ncn3n2)cc1 | – | inactive: 6.49% |
| O=C(Nc1ccc2nsnc2c1)C1CC1 | – | inactive: -13.6% |
| O=C(CSc1nc(-c2ccco2)cc(C(F)(F)F)n1)Nc1ccc2c(c1)CCC2 | inconclusive: 22.4 µM [inhibitor, single point] | – |
| Cc1ccc(S(=O)(=O)N2CCC(C(=O)NCCN3CCCCCC3)CC2)cc1 | inconclusive: 31.6 µM [inhibitor, single point] | – |
| C/C(=N\NC(=S)NC1CCCCC1)c1ccc(OC(F)F)cc1OC(F)F | inconclusive: 10 µM [inhibitor, partial curve] | – |
| CCC(C)c1ccc(S(=O)(=O)N2CCN(C(C)C(=O)NC3CCCC3)CC2)cc1 (configuration not stated) | inconclusive: 22.4 µM [inhibitor, partial curve] | – |
| CCOc1cc(NC(=S)NCC2CCCO2)c(OCC)cc1NC(=O)c1ccc(C)cc1 (configuration not stated) | inconclusive: 1 µM [inhibitor, partial curve] | – |
| CCOCCn1c(CN2CCN(c3ccc(F)cc3)CC2)nc2c1c(=O)n(C)c(=O)n2C | inconclusive: 11.2 µM [inhibitor, single point] | – |
| COC(=O)Cc1ccc(NC(=O)c2ccc(C(C)(C)C)cc2)cc1 | active: 2.51 µM | – |
| COc1ccc(N=C2C(=Nc3ccc(OC)cc3)N(c3ccc(N(C)C)cc3)C(=S)N2c2ccc(OC)cc2)cc1 | active: 1.12 µM | – |
| O=C(CSc1ccc2nnc(-c3ccccn3)n2n1)Nc1ccc(F)cc1F | inconclusive: 22.4 µM [inhibitor, single point] | – |
| CCN(c1cccc(C(F)(F)F)c1)S(=O)(=O)c1ccc2c(c1)CCN2C(C)=O | inconclusive: 31.6 µM [inhibitor, single point] | – |
| O=C(c1csc2c1CCCCC2)N1CCC2(CC1)OCCO2 | inconclusive: 0.501 µM [inhibitor, partial curve, poor fit] | – |
| Cc1cnc(C(=O)Nc2ccc(N3CCOCC3)cc2)cn1 | – | inactive: 0.538% |
| COc1cc(C(CCN2CCCC2)c2c(OC)cc(OC)c3c(-c4ccccc4)cc(=O)oc23)cc(OC)c1OC (configuration not stated) | – | inactive: -20.9% |
| CCOC(=O)C1=C(COC(=O)c2ccc(OC(C)C)cc2)NC(=O)NC1C (configuration not stated) | inconclusive: 3.55 µM [inhibitor, partial curve] | – |
| COc1ccc([C@@H]2Sc3cc(OC)ccc3N(CCN(C(C)C)C(C)C)C(=O)[C@H]2OC(C)=O)cc1 | inconclusive: 11.2 µM [inhibitor, partial curve] | – |
| Cc1cc(C)nc(SC(C(=O)O)c2ccccc2)n1 (configuration not stated) | – | inactive: 8.35% |
| Cc1ccc2c(c1)c1ncn(Cc3ccc(F)cc3)c(=O)c1n2C | – | inactive: -22.6% |
| CCOc1ccc(OCC)c(NC(=O)CCn2c(=O)oc3ccccc32)c1 | inconclusive: 15.8 µM [inhibitor, partial curve] | – |
| CC(C)(C)c1cc[n+](-c2[nH]c(=O)sc2/C=N/N=C(\[O-])c2cccnc2)cc1 | – | inactive: 15.3% |
| c1ccn(-c2ccc(-c3ccn[nH]3)cc2)c1 | inconclusive: 35.5 µM [inhibitor, single point] | – |

| Structure (SMILES) | Potency | activity change, negative = inhibition |
| --- | --- | --- |
| Cc1ccc(-c2nc(NCc3cccnc3)c3ccccc3n2)cc1 | inconclusive: 8.91 µM [inhibitor, partial curve] | – |
| CCOc1ccc(-c2cc(CCCC(=O)NCCc3ccc(OC)c(OC)c3OC)no2)cc1 | inconclusive: 31.6 µM [inhibitor, single point] | – |
| CCOC(=O)c1sc(NC(=O)Nc2ccccc2F)nc1C | – | inactive: -7.9% |
| COc1ccc(NC(=O)c2cccc(Cn3cc(Br)cn3)c2)cn1 | inconclusive: 25.1 µM [inhibitor, partial curve] | – |
| Cc1ccc(C(=O)Nc2ccc(N3CCN(S(C)(=O)=O)CC3)cc2)cc1C | – | inactive: -1.03% |
| O=[N+]([O-])c1ccc(N2CCCCC2)cn1 | – | inactive: 11.3% |
| COc1ccc(Nc2cc(C)nc3ccc(OC)cc23)cc1 | inconclusive: 14.1 µM [inhibitor, single point] | – |
| O=C(Cn1cnc2c(oc3ccccc32)c1=O)N1CCCC1 | – | inactive: 18.8% |
| Cc1cc(C)n(-c2nc(-c3cccc(Cl)c3)cs2)n1 | inconclusive: 12.6 µM [inhibitor, partial curve, poor fit] | – |
| COc1cc(OC)cc(-c2cc3ccc(OC)cc3cn2)c1 | inconclusive: 28.2 µM [inhibitor, single point] | – |
| CN(Cc1nccs1)C(=O)c1ccc(OC2CCN(CCc3ccccc3)CC2)cc1 | inconclusive: 7.94 µM [inhibitor, partial curve] | – |
| CCN(C(=O)COC(=O)/C(=C/c1ccccc1)n1nnnc1C)C1CCCCC1 | inconclusive: 25.1 µM [inhibitor, single point] | – |
| Oc1ccccc1/C=N/Nc1cccc2cccnc12 | inconclusive: 31.6 µM [inhibitor, single point] | – |
| O=C(Nc1ccc2nsnc2c1)N1CCCCC1 | – | inactive: -14.7% |
| CN(Cc1ccc(F)cc1)C(=O)c1cccc(S(=O)(=O)N2CCN(Cc3ccccc3)CC2)c1 | inconclusive: 11.2 µM [inhibitor, partial curve] | – |
| O=C(Cc1ccc(-c2ccccc2)cc1)Nc1ccccn1 | inconclusive: 20 µM [inhibitor, partial curve, poor fit] | – |
| O=S(=O)(NC(=S)NC1CCCCC1)c1ccc(Br)cc1 | – | inactive: 14.1% |
| COc1ccc(-c2cc(-c3cccs3)c(C#N)c(SCC(=O)NCc3ccco3)n2)cc1 | inconclusive: 3.16 µM [inhibitor, partial curve] | – |
| N=c1oc2cc(O)ccc2cc1C(=O)Nc1ccc(Br)cc1 | inconclusive: 0.501 µM [inhibitor, full curve, poor fit] | – |
| N#Cc1nc(-c2ccc(F)cc2)oc1NCc1ccco1 | inconclusive: 11.2 µM [inhibitor, partial curve] | – |
| CC(C)(C)c1nn(-c2ccccc2)c2[nH]c(=O)c(CNc3ccc4c(c3)OCCO4)cc12 | inconclusive: 7.08 µM [inhibitor, full curve] | – |
